Measurements published in the supplement of paper PMC9334596.
“And” between values parts separate entries of the source, which are not always exact repeats. Equal entries are not always repeated. Over roughly 5,300 compounds, “PER2::LUC luminescence relative to vehicle control” has its median near 0.96; the highest 2% begin near 1.3. Some of the results follow.

Test system: mPer2Luc MEF
Test: PER2::LUC luminescence relative to vehicle control (fold of vehicle); higher = higher PER2::LUC reporter signal
Details: 10 µM
Summary of the method: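 The reported values are PER2::LUC luminescence as fold of vehicle control in mouse embryonic fibroblasts carrying the mPer2Luc reporter. Cells were seeded at ~3000 per well in 384-well plates in DMEM with 10% FBS at 37 °C and 5% CO2, and compounds were added at 10 μM 48 h later. ONE-Glo luminescence was read 24 h and 30 h after treatment.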

| Compound | PER2::LUC luminescence (time after treatment 24 h) | PER2::LUC luminescence (time after treatment 30 h) |
| --- | --- | --- |
| O=C(O)CCCCC1CCSS1 (racemic) | 1.03 | 1.2 |
| COc1ccc2c(c1)O[C@@H]1COc3cc(OC)c(OC)cc3[C@@H]1C2=O | 0.625 | 0.623 |
| CC(C)(C)NCC(O)c1cc(O)cc(O)c1 (stereo unspecified) | 1.11 and 1.06 | 0.985 and 0.932 |
| O=C(c1ccc(OCCCc2c[nH]cn2)cc1)C1CC1 | 1.09 and 1.51 | 1.33 and 1.29 |
| CC(C)[C@H](N)C(=O)OCC(CO)OCn1cnc2c(=O)[nH]c(N)nc21 (stereo partly specified) | 0.584 | 0.497 |
| CN1CCC[C@@H]1CCO[C@](C)(c1ccccc1)c1ccc(Cl)cc1 | 0.728 | 0.678 |
| CCOc1ccc(NC(C)=O)cc1 | 0.845 | 1.16 |
| CN1CCN(c2nc(C3=C(c4c[nH]c5ccccc45)C(=O)NC3=O)c3ccccc3n2)CC1 | 0.75 | 0.787 |
| COc1cc2ncnc(Nc3ccc(F)c(Cl)c3)c2cc1OCCCN1CCOCC1 | 0.753 and 0.586 | 0.726 and 0.608 |
| O=C(O)c1cccnc1C(=O)O | 0.981 | 0.885 |
| CC(=O)Nc1ccc(C(=O)O)cc1 | 1.03 | 0.901 |
| CCCCC[C@H](O)/C=C/[C@H]1[C@H](O)CC(=O)[C@@H]1CCCCCCC(=O)O | 1.11 and 1.13 | 0.83 and 1.13 |
| CC[C@@H]([C@H](C)O)n1ncn(-c2ccc(N3CCN(c4ccc(OC[C@@H]5CO[C@@](Cn6cncn6)(c6ccc(F)cc6F)C5)cc4)CC3)cc2)c1=O | 0.744 | 0.717 |
| CCN1CCC[C@H]1CNC(=O)c1c(O)c(Cl)cc(Cl)c1OC | 1.14 and 1.02 | 0.977 and 0.877 |
| O=C(O)c1ccccc1 | 0.918 | 0.766 |
| CN(CC[C@@H](Oc1ccc(C(F)(F)F)cc1)c1ccccc1)CC(=O)[O-].[Li+] | 0.942 | 0.784 |
| CC(C)C[C@H](NC(=O)OCc1ccccc1)C(=O)N[C@@H](CC(C)C)C(=O)NCC(=O)CNC(=O)[C@H](CC(C)C)NC(=O)[C@H](CC(C)C)NC(=O)OCc1ccccc1 | 1.01 | 0.909 |
| Oc1cc(O)c(Cl)cn1 | 1.25 | 1.18 |
| CC1(C)CCC(C)(C)c2cc(C(=O)Nc3ccc(C(=O)O)cc3)ccc21 | 1.64 | 1.67 |
| COC(=O)C1=C(C)NC(C)=C(C(=O)OCC(C)C)C1c1ccccc1[N+](=O)[O-] (stereo unspecified) | 0.986 | 0.85 |
| CC1(C)CNc2cc(NC(=O)c3cccnc3NCc3ccncc3)ccc21 | 0.853 and 0.796 | 0.802 and 0.858 |
| CN1c2c([nH]c(N)nc2=O)NC[C@@H]1CNc1ccc(C(=O)N[C@@H](CCC(=O)O)C(=O)O)cc1 | 1.12 | 1.06 |
| CC[C@@H]1/C=C(\C)C[C@H](C)C[C@H](OC)[C@H]2O[C@@](O)(C(=O)C(=O)N3CCCC[C@H]3C(=O)O[C@H](/C(C)=C/[C@@H]3CC[C@@H](O)[C@H](OC)C3)[C@H](C)[C@@H](O)CC1=O)[C@H](C)C[C@@H]2OC | 0.741 | 0.852 |
| OC[C@H]1O[C@@H](c2ccc(Cl)c(Cc3ccc(O[C@H]4CCOC4)cc3)c2)[C@H](O)[C@@H](O)[C@@H]1O | 1.11 | 1.03 |

| Compound | PER2::LUC luminescence (time after treatment 24 h) | PER2::LUC luminescence (time after treatment 30 h) |
| --- | --- | --- |
| Cc1ccccc1CNc1ncnc2c1ncn2[C@@H]1O[C@H](CO)[C@@H](O)[C@H]1O | 1.35 | 1.28 |
| CCCCOc1nc(N)c2c(n1)N(Cc1cccc(CN3CCCC3)c1)CC(=O)N2 | 0.951 | 0.974 |
| COC(=O)C1=C(C)NC(C)=C(C(=O)OCCN(C)Cc2ccccc2)C1c1cccc([N+](=O)[O-])c1 (stereo unspecified) | 1.07 | 0.867 |
| CCCC(=O)[O-].[Na+] | 1.05 and 1.08 | 0.969 and 0.827 |
| C/C=C(/C)C(=O)O[C@H]1[C@H](OC(C)=O)[C@@]2(CO)C(CC1(C)C)C1=CCC3[C@@]4(C)CCC(O[C@@H]5O[C@H](C(=O)O)[C@@H](O[C@@H]6O[C@H](CO)[C@@H](O)[C@H](O)[C@H]6O)[C@H](O)[C@H]5O[C@@H]5O[C@H](CO)[C@@H](O)[C@H](O)[C@H]5O)[C@](C)(CO)C4CC[C@@]3(C)[C@]1(C)C[C@H]2O.C/C=C(\C)C(=O)O[C@H]1[C@H](OC(C)=O)[C@@]2(CO)C(CC1(C)C)C1=CCC3[C@@]4(C)CCC(O[C@@H]5O[C@H](C(=O)O)[C@@H](O[C@@H]6O[C@H](CO)[C@@H](O)[C@H](O)[C@H]6O)[C@H](O)[C@H]5O[C@@H]5O[C@H](CO)[C@@H](O)[C@H](O)[C@H]5O)[C@](C)(CO)C4CC[C@@]3(C)[C@]1(C)C[C@H]2O (stereo partly specified) | 0.817 | 0.802 |
| COc1ccc([C@@H]2OC[C@@H]3[C@H]2CO[C@H]3c2ccc(OC)c(OC)c2)cc1OC | 1.05 | 1.07 |
| CC(C)=CCc1c2c(c3occ(-c4ccc(O)cc4)c(=O)c3c1O)C=CC(C)(C)O2 | 1 | 0.976 |
| Cc1cc(-c2ccc(CC(=O)Nc3ccc(-c4cccnc4)cc3)cc2)ccn1 | 0.824 | 0.839 |
| CN1CCN(c2c(F)cc3c(=O)c(C(=O)O)cn4c3c2SCC4)CC1 | 0.874 | 0.935 |
| COc1ccc(C2CC(c3ccccc3)=NN2c2ccc(S(N)(=O)=O)cc2)cc1 (stereo unspecified) | 0.907 | 0.9 |
| CC(=O)N1CCN(C)CC1 | 0.932 | 1.01 |
| CNCc1cc(-c2ccccc2F)n(S(=O)(=O)c2cccnc2)c1 | 0.922 | 0.955 |
| Cn1c2ncnc-2c(O)n(C)c1=O | 1.14 | 1.18 |
| Cc1ccccc1C(OCCN(C)C)c1ccccc1 (stereo unspecified) | 0.97 and 0.768 | 0.937 and 0.673 |
| NCCNS(=O)(=O)c1cccc2c(Cl)cccc12 | 1.15 | 0.684 |
| Cc1nn(C)c2c1C(c1ccc(C(F)(F)F)cc1)C(C#N)=C(N)O2 (stereo unspecified) | 1.09 | 0.946 |
| CC(C)NCC(O)c1ccc(O)c(O)c1 (single isomer, unassigned; (-)) | 0.989 | 0.994 |
| O=C1C(O)=C([C@H]2CC[C@H](c3ccc(Cl)cc3)CC2)C(=O)c2ccccc21 | 0.783 | 0.946 |
| O=C(O)CNC(=O)c1nc(Cl)c2ccccc2c1O | 1.01 | 0.941 |
| COc1cc(Nc2nc3c(s2)CCCC3c2ccc(F)cc2)ccc1-n1cnc(C)c1 (stereo unspecified) | 1.05 | 1.02 |
| C[C@@H]1CC[C@@]23CCC4(C)[C@@](C=CC5[C@@]6(C)CCC(=O)C(C)(C)C6CC[C@]54C)(OC2=O)C3[C@H]1C (stereo partly specified) | 1.13 | 1.03 |
| NC(=O)NC1NC(=O)NC1=O (stereo unspecified) | 1.22 | 1.09 |
| CCOCc1nc2c(N)nc3ccccc3c2n1CC(C)(C)O | 0.909 | 0.877 |
| CN(C)CCOC(c1ccc(Cl)cc1)c1ccccn1 (stereo unspecified) | 0.834 | 0.853 |
